SMILES strings stand for the structures. This is one part of the list. The main result of the screen is listed elsewhere. These columns were measured beside it and carry no call. For some assays here: Compounds called inactive in the main read-out are mostly missing here. For some assays here: The note in brackets gives the kind of curve behind each potency; many fits are weak.

What is called AC50 is the concentration giving half of the maximal activity seen.

Assay [1] in a line: qHTS Assay for Lipid Storage Modulators (AID 1519). Conditions: Drosophila S3 cells, BODIPY lipid droplet/cell ratio, laser cytometry, cells loaded with oleic acid. The method, boiled down:
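Cells seeded at 5,000 per well were treated with compounds over a concentration series and loaded with oleic acid (400 uM, as added). Lipid droplet fluorescence (488 nm excitation, 500-530 nm channel) was read by laser-scanning cytometry and normalized to 20 uM Triacsin C.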
For orientation: qHTS replaces the single test concentration by a dilution series.

Assay [2] in a line: S16 Schwann cell PMP22 intronic element beta-lactamase assay (AID 624044). Note: nearly all actives have a fitted effect of over 15% in size. Conditions: S16 rat Schwann cells, PMP22 element beta-lactamase FRET, 24 h; measured here: 460 nm blue channel. The method, boiled down:
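Rat S16 Schwann cells with beta-Lac driven by a PMP22 intronic element, compound-treated 24 h at 37 °C. LiveBLAzer FRET B/G read: 460 nm normalized to potassium clavulanate vs DMSO; 535 nm FRET as viability; concentration-effect curves classified.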

Assay [3] is described as follows: qHTS assay for small molecule antagonists of peroxisome proliferator-activated receptor gamma signaling (AID 588537). Conditions: HEK293 PPARg-UAS-bla, beta-lactamase ratio, antagonist mode; measured here: W460 blue channel. Put shortly: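 Inhibitors of agonist-stimulated UAS-bla reporter activity were sought in HEK293 cells; rosiglitazone (50 nM) defined full signal and DMSO baseline. Curves fitted to Hill model gave IC50 and efficacy.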

A short description of assay [4]: qHTS Assay for Modulators of Human Peripheral Myelin Protein 22 (PMP22) Expression/Activity (AID 1967). Conditions: Cell-based PMP22 reporter, dual-color luciferase ratio. Put shortly: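 Engineered MSC80 cells, Pmp22-promoter green and EF-alpha red luciferase reporters; 24h compound treatment at 37 °C. Concentration-response fits on green, red and ratio signals, each overlap-corrected, with %Activity normalized to untreated wells.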

A short description of assay [5]: qHTS assay for small molecule antagonists of retinoid X receptor alpha signaling (AID 588546).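 Note: cells stimulated with 9-cis-retinoic acid as agonist; % is set by controls: 0 for no effect and ±100 for the full control effect.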 Conditions: HEK293T RXRa-UAS-bla, beta-lactamase ratio, antagonist mode; measured here: W530 green channel, cytotoxicity proxy. The method, boiled down:
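Beta-lactamase reporter inhibition, read as CCF4 fluorescence ratio (ex 405, em 460/530 nm) after 2 h at RT. HEK293T UAS-bla cells, 2500/well, were stimulated with 9-cis-RA at 500 or 100 nM final alongside test compound for 18 h at 37 C.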

A short description of assay [6]: qHTS drug screen for cell cycle checkpoint inhibitors in PARPi-resistant BRCA-mutant ovarian cancer cell lines. (AID 1963452). Conditions: PEO1/OlaR viability, CellTiter-Glo luminescence, 96 h; measured here: PEO4 viability. The method, boiled down: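 PEO1, PEO4 and PEO1/OlaR ovarian cancer cells, 600 per well, exposed 96 h at 37C to a dilution series. Viability read by CellTiter-Glo luminescence, normalized to DMSO and empty wells; activity summarized as Z-AUC.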

Setting [7] is: measured here: cell count channel max response.
The mark [8] stands for this setting: measured here: lipid (BODIPY) channel AC50.
The mark [9] stands for this setting: measured here: lipid channel max response.
Setting [10] is: measured here: green reporter channel AC50, mouse Pmp22 promoter in mouse Schwann cells.
[11] abbreviates: measured here: red reporter channel AC50, EF-alpha promoter control reporter in MSC80 mouse Schwann cells.
Tags give direction and shape of the fitted curve.

Regarding `O=c1oc2ccccc2c(O)c1Cc1c(O)c2ccccc2oc1=O`, the max response in assay [1] (setting [7]) was 22.7%; in assay [1] (setting [9]) it was 34.8%. Further, the AC50 was 22.4 µM [rising, single point] in assay [1] (setting [8]) and 4.25 µM [falling, partial curve, poor fit] in assay [2].
In the case of `O=P1(N(CCCl)CCCl)NCCCO1` (stereo unspecified), the max response in assay [1] (setting [7]) turned out to be 29.2%; in assay [1] (setting [9]), 46.1%. The AC50 in assay [1] (setting [8]) was 39.8 µM [rising, single point]; in assay [3], 50.1 µM [rising, single point].
For `O=[N+]([O-])c1ccc(O[C@@H]2O[C@H](CO)[C@@H](O)[C@H](O)[C@H]2F)c([N+](=O)[O-])c1`, the results for the max response in assay [1] (setting [7]) and in assay [1] (setting [9]) were 49.9% and 50.6%, respectively. Moreover, the concentration at half-maximal activity (AC50) in assay [4] (setting [10]) is 26.9 µM [rising, partial curve, poor fit]; in assay [4] (setting [11]), 16.9 µM [rising, partial curve, poor fit].
Turning to `CN1CCc2cc(O)cc3c2C1Cc1ccc(O)c(O)c1-3` (stereo unspecified), the max response in assay [1] (setting [7]) was 49.1%; in assay [1] (setting [9]) it was 52.4%. Also, the AC50 is 30.1 µM [falling, full curve] in assay [4] (setting [10]) and 37.9 µM [falling, full curve] in assay [4] (setting [11]).
As to `COC(=O)C[C@](O)(CCCC(C)(C)O)C(=O)O[C@@H]1C(OC)=C[C@]23CCCN2CCc2cc4c(cc2[C@H]13)OCO4`, the max response in assay [1] (setting [7]) amounted to 47.5%; in assay [1] (setting [9]), 2.47%. The AC50 is 0.562 µM [rising, full curve, poor fit] in assay [1] (measured here: cell number channel AC50) and 0.0999 µM [falling, full curve] in assay [2].
As for `NCCCP(=O)(O)O`, the max response in assay [1] (setting [7]) turned out to be 47.7%; in assay [1] (setting [9]), 46.8%. The AC50 in assay [4] (setting [11]) is 95.3 µM [falling, single point].
Consider `CCCCOC(=O)c1ccccc1C(=O)OCCCC`, for which the max response in assay [1] (setting [7]) is 28.2%; in assay [1] (setting [9]) it was 39.6%; in assay [5] it was -10.3%. Besides, the AC50 in assay [1] (setting [8]) is 35.5 µM [rising, partial curve].
On to `CC(N)C(=O)OC(C)(C)Cc1ccc(Cl)cc1` (stereo unspecified), for which the max response in assay [1] (setting [7]) worked out at 39.4%; in assay [1] (setting [9]) it was 39.7%. Further, the AC50 is 75.7 µM [falling, partial curve] in assay [4] (setting [10]) and 84.9 µM [falling, single point] in assay [4] (setting [11]).
For the compound `NCC1(CC(=O)O)CCCCC1`, the results for the max response in assay [1] (setting [7]) and in assay [1] (setting [9]) were 49.4% and 50%, respectively. Also, in assay [6], the AC50 is 6.92 µM [rising, partial curve, poor fit].
In the case of `NNCc1cccc(O)c1`, the values for the max response in assay [1] (setting [7]) and in assay [1] (setting [9]) were 64.2% and 54.5%, respectively. For the same compound, the AC50 in assay [4] (setting [11]) is 21.3 µM [falling, partial curve].
In the case of `C#CCOC(=O)C1=CCCN(C)C1`, the max response in assay [1] (setting [7]) was 48.6%; in assay [1] (setting [9]), 47.1%. The AC50 in assay [4] (setting [10]) was 84.9 µM [falling, single point]; in assay [4] (setting [11]) it was 84.9 µM [falling, single point].

These data come from PubChem BioAssay (NCATS).
